Target: T1, human insulin receptor (HIR), solubilized from human placental membranes and purified (human)
T1 construct: also called insulin receptor protein
Experiment: receptor-binding assay with purified human insulin receptor, compared to native bovine insulin (FIG. 1)

- binding result: binds
B1: Nanogold-bovine-insulin (NG-BI), bovine insulin derivatized at B-chain Phe1 with one mono-NHS-Nanogold cluster (ligand)
chain 1: not shown
chain 2: not shown
modifications: Nanogold cluster (1.4 nm, 70 gold atoms) on Phe1 of the B chain; the filing does not say which of SEQ ID NO:11 and 12 is the B chain
notes: The label sits only on the B chain; also called Nanogold-insulin; gold-labeled insulin

Source: patent US7181349 (dated 2007)
